# Data: article PMC6222422, “Synthesis and Biological Evaluation of Novel Indole-Derived Thioureas” (Molecules : A Journal of Synthetic Chemistry and Natural …, 2018)
# System: Gram-positive cocci, Gram-negative rods and Candida albicans
# Assay: In vitro antimicrobial screening (disc diffusion, MIC)
# Settings: SAR discussion
structure (smiles),measurement,value
"S=C(NCCc1c[nH]c2ccccc12)NC1CCCCC1 [Compound 9, 1-(2-(1H-Indol-3-yl)ethyl)-3-cyclohexylthiourea]",antimicrobial activity (in words),block both antimicrobial and antiviral activity
"S=C(NCCc1c[nH]c2ccccc12)Nc1ccccc1Br [Compound 15, 1-(2-(1H-Indol-3-yl)ethyl)-3-(2-bromophenyl)thiourea]",antimicrobial activity (in words),moderate antimicrobial activity
"C=C(C)CNC(=S)NCCc1c[nH]c2ccccc12 [Compound 19, 1-(2-(1H-Indol-3-yl)ethyl)-3-(2-methylallyl)thiourea]",antimicrobial activity (in words),moderate antibacterial activity
"CCNC(=S)NCCc1c[nH]c2ccccc12 [Compound 22, 1-(2-(1H-Indol-3-yl)ethyl)-3-ethylthiourea]",antimicrobial activity (in words),block both antimicrobial and antiviral activity
"Cc1ccc(NC(=S)NCCc2c[nH]c3ccccc23)cc1Cl [Compound 23, 1-(2-(1H-Indol-3-yl)ethyl)-3-(3-chloro-4-methylphenyl)thiourea]",antimicrobial activity (in words),disappearance of antimicrobial activity
"Fc1ccc(NC(=S)NCCc2c[nH]c3ccccc23)cc1Cl [Compound 28, 1-(2-(1H-Indol-3-yl)ethyl)-3-(3-chloro-4-fluorophenyl)thiourea]",antimicrobial activity (in words),disappearance of antimicrobial activity
"CNC(=S)NCCc1c[nH]c2ccccc12 [Compound 25, 1-(2-(1H-Indol-3-yl)ethyl)-3-methylthiourea]",antimicrobial activity (in words),block both antimicrobial and antiviral activity
